About 7,200 (1.8%) of roughly 410,000 compounds were called active. Inconclusive means that the source gave no clear call. Such entries were picked first, then a sample of the others. Calls follow the shape of the dose curve; as a rule, active = well fitted activation curve with a large enough effect; inconclusive = small, poorly fitted or top-dose-only effect, or another doubt; inactive = no such curve, though single readings can be large or run the other way. Potencies of inconclusive entries are left out as doubtful fits.
Test: qHTS of TDP-43 Inhibitors; also: nearly all actives have a fitted effect of over 50% in size; as to growth rescue (activation): % of control where 0% means no effect
Conditions: TDP-43 expressing yeast growth rescue, BacTiter-Glo, 24 h; growth rescue (activation): at 46.1 µM (top of the series)
In short: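 Luminescence from BacTiter-Glo reports growth of TDP-43-expressing yeast after 24 hr at 30 deg C with compound. Cells were raffinose-pregrown to mid-log, then seeded in galactose medium at OD600=0.02.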
With `CCC(=O)N1CC(=O)Nc2ccc(F)cc2C1c1ccccc1` (configuration not stated) the Potency was inconclusive [activator, full curve]. For `CC1C(OC(=O)CCC(=O)NC(C)(C)CO)O[C@H]2OC3(C)CC[C@H]4[C@H](C)CCC1C24OO3` (some centres not stated), the Potency was active: 22.4 µM. In the case of `Cc1ccccc1NC(=O)COC(=O)c1cc(C)n(C2CC2)c1C`, the Potency is reported as inconclusive [activator, full curve, poor fit]. With `Cn1ncc2c(NCc3ccc(Cl)cc3)ncnc21` the Potency was inconclusive [activator, single point]. For `Cc1ccc(NC(=O)CCCn2c(=O)oc3ccccc32)c(O)c1`, the Potency was inconclusive [activator, single point]. In the case of `COc1ccc(OC(=O)N(C)C[C@@H]2OCc3ccccc3-c3c(n(C)c4ccccc34)C(=O)N([C@H](C)CO)C[C@@H]2C)cc1`, the Potency is reported as inconclusive [activator, full curve, poor fit]. In the case of `C/C(=N\Nc1cccc2ccccc12)c1c(O)n(Cc2ccccc2)c(=O)[nH]c1=O`, the “growth rescue (activation)” value is reported as inactive: -1.25%. For `CC(C)OC(=O)C1C2c3ccccc3C(c3ccccc32)C1C(=O)O` (configuration not stated), the Potency was inconclusive [activator, single point]. With `CNC(=O)O/N=C(\N)Cc1csc2ccc(Cl)cc12` the Potency was inconclusive [activator, single point]. In the case of `Cc1cccc(NC(=O)COC(=O)c2cc(C)n(C3CC3)c2C)c1`, the Potency is reported as active: 35.5 µM. For `Cc1ccc(C[n+]2c(-c3ccc(C)cc3)cc(-c3ccc(C)cc3)cc2-c2ccc(C)cc2)cc1`, the growth rescue (activation) was inconclusive: -65.8% [activator]. With `CCCn1nnc(NC(=O)COc2ccc(CC)cc2)n1` the Potency was inconclusive [activator, single point]. In the case of `CCC(C)n1c(O)c(/C=N/N2CCOCC2)c(=O)[nH]c1=S` (configuration not stated), the “growth rescue (activation)” value is reported as inactive: -19.5%. For `Cc1cc(C=C2C(=O)N(C)C(=S)N(C)C2=O)c(C)n1-c1cccnc1`, the Potency was inconclusive [activator, single point]. For `Cc1ccc2nc(SCC(=O)N/N=C/c3ccco3)cc(C)c2c1`, the Potency was inconclusive [activator, full curve]. In the case of `O=C(c1ccc2c(c1)N(Cc1ccc(F)cc1)C(=O)c1ccccc1S2)N1CCC2(CC1)OCCO2`, the “growth rescue (activation)” value is reported as inactive: 27.2%. With `COC(=O)c1ccc(N2C(=O)CC(N3CCC(O)(c4ccc(Br)cc4)CC3)C2=O)cc1` (configuration not stated) the Potency was active: 6.31 µM. With `O=[N+]([O-])c1cc([As](=O)(O)O)ccc1O` the Potency was inconclusive [activator, partial curve]. In the case of `O=[N+]([O-])c1ccc(N2CCOCC2)c2c1no[n+]2[O-]`, the growth rescue (activation) is reported as inconclusive: -80% [activator]. In the case of `Cc1ccccc1-n1c(/C=C/c2ccc(N(C)C)cc2)nc2ccccc2c1=O`, the Potency is reported as inconclusive [activator, partial curve]. In the case of `O=C(Nc1ccc(Oc2ccc(Cl)cc2)c(Cl)c1)c1cc(I)cc(I)c1O`, the Potency is reported as inconclusive [activator, partial curve, poor fit]. In the case of `COc1cccc(Cn2c(-c3cccs3)noc2=O)c1`, the Potency is reported as inconclusive [activator, single point]. With `Cc1ccsc1C(=O)C1CCCN(Cc2ccccc2O)C1` (configuration not stated) the “growth rescue (activation)” value was inactive: 15.4%. With `O=C(c1cc2cc(Br)ccc2[nH]1)N1CCC2(CC1)OCCO2` the Potency was inconclusive [activator, single point]. For `O=C(COc1ccc(Br)cc1)N1CCN(Cc2ccncc2)CC1`, the “growth rescue (activation)” value was inactive: 10.7%. With `C/C(=N/O)c1ccc2ccc3ccccc3c2c1` the Potency was inconclusive [activator, single point]. With `O/N=C1/C(=C\c2ccccc2)N2CCC1CC2` the “growth rescue (activation)” value was inactive: -25.5%. In the case of `COC(=O)[C@]12OC[C@]34C([C@@H](O)[C@@H]1O)[C@]1(C)CC(=O)C(O)=C(C)[C@@H]1C[C@H]3OC(=O)[C@H](O)[C@@H]24` (some centres not stated), the “growth rescue (activation)” value is reported as inactive: -2.43%. For `CCCNc1nc(-c2cc(C(=O)Nc3ccccc3)on2)cc(C(C)C)n1`, the Potency was active: 17.8 µM. In the case of `O=C1NCN(c2ccccc2)C12CCN(C(c1ccnc3ccccc13)c1nnnn1Cc1ccccc1)CC2` (configuration not stated), the “growth rescue (activation)” value is reported as inactive: 6%. For `O=C1CC(N2CCC(n3c(=O)[nH]c4ccccc43)CC2)C(=O)N1c1ccc(F)cc1` (configuration not stated), the Potency was inconclusive [activator, partial curve]. With `COc1ccccc1OCCCn1cc(C(C)=O)c2ccccc21` the Potency was inconclusive [activator, single point]. For `Cc1cc(N(C)C)ccc1N=Nc1ccc(N)cc1`, the Potency was active: 12.6 µM. For `C=CCn1c(O)c(C(C)=NCCC2=CCCCC2)c(=O)[nH]c1=O`, the Potency was inconclusive [activator, single point]. For `Nc1c(Cl)cc([N+](=O)[O-])cc1Cl`, the Potency was inconclusive [activator, partial curve]. With `O=C(CNC(=O)c1ccc(Cl)cc1)Nc1ccc(Br)cc1C(=O)c1ccccc1` the Potency was inconclusive [activator, full curve, poor fit]. For `CS(=O)(=O)c1ccc(C2=C(CNC(=O)c3cccs3)[C@H]3CC[C@@H](C2)N3Cc2ccccc2)cc1`, the “growth rescue (activation)” value was inactive: 12.8%. For `COc1ccc(-c2cc(C(=O)N3CCN(c4ccccc4OC)CC3)c3cc(C(C)C)ccc3n2)cc1`, the Potency was inconclusive [activator, partial curve]. In the case of `Cc1cc(C)c(S(=O)(=O)N2Cc3ccccc3-n3nncc3C2)c(C)c1`, the Potency is reported as inconclusive [activator, single point]. With `CC12CCC3C(CCC4CC(=O)C(C(O)C(F)(F)F)CC43C)C1CCC2O` (configuration not stated) the Potency was active: 14.1 µM. In the case of `Cc1oc(-c2cccs2)nc1CSCC(=O)N1CCC2(CC1)OCCO2`, the “growth rescue (activation)” value is reported as inactive: -5.02%. With `COP(=O)(OC)C(Nc1ccccn1)c1ccccc1` (configuration not stated) the “growth rescue (activation)” value was inactive: 25.2%. In the case of `O=C(c1cn(Cc2ccccc2F)c2ncccc12)C(F)(F)F`, the Potency is reported as inconclusive [activator, partial curve]. In the case of `O=C1NC(=O)C(=Cc2cccc(OCCOc3ccccc3)c2)C(=O)N1`, the Potency is reported as inconclusive [activator, single point]. In the case of `O=C(CCl)NN=C(c1ccccc1)c1ccccc1`, the Potency is reported as inconclusive [activator, single point]. In the case of `Cc1oc(-c2ccccc2)nc1CN1C(=O)CN=C(c2ccccc2)c2ccccc21`, the Potency is reported as inconclusive [activator, partial curve, poor fit]. In the case of `Cc1ccc(C(=O)Nc2c(C(=O)Nc3ccc(C)c(C)c3)sc3nc(C)cc(C)c23)cc1`, the Potency is reported as inconclusive [activator, partial curve]. For `CCOc1ccccc1NC(=O)Cn1c(=O)oc2ccccc21`, the Potency was inconclusive [activator, partial curve]. For `CCOc1ccc2nc(NC(=O)c3cccn(Cc4ccccc4Cl)c3=O)sc2c1`, the Potency was inconclusive [activator, full curve, poor fit]. For `O=C(c1ccccc1)C(CN1CCCC1)c1ccccc1` (configuration not stated), the Potency was inconclusive [activator, single point]. With `CC(C)(C)c1ccc(CN2C(=O)CN=C(c3ccccc3)c3ccccc32)cc1` the Potency was inconclusive [activator, single point]. For `Nc1ccc(Br)cc1`, the “growth rescue (activation)” value was inactive: -14.4%. In the case of `CCN(N=Nc1nonc1OC)c1nonc1OC`, the Potency is reported as inconclusive [activator, partial curve]. With `CC(=O)O[C@H](CC(=O)O)C[N+](C)(C)C` the Potency was inconclusive [activator, full curve]. With `O=C1NC(=O)N(c2ccccc2F)C(=O)/C1=C/c1ccc(Oc2ccc([N+](=O)[O-])cn2)cc1` the Potency was inconclusive [activator, full curve, poor fit]. For `Cc1ccc2cc3cc(C(=O)N4CCC5(CC4)OCCO5)oc3nc2c1`, the “growth rescue (activation)” value was inactive: 1.25%. In the case of `Fc1ccc(C2=CCN(C(c3cccs3)c3nnnn3CCc3ccccc3)CC2)cc1` (configuration not stated), the “growth rescue (activation)” value is reported as inactive: 14%. With `C[C@@H]1O[C@@H](O[C@H]2C[C@@H](O)[C@]3(CO)[C@H]4[C@H](O)C[C@]5(C)[C@@H](C6=CC(=O)OC6)CC[C@]5(O)[C@@H]4CC[C@]3(O)C2)[C@H](O)[C@H](O)[C@H]1O` the Potency was inconclusive [activator, full curve, poor fit]. With `Cc1csc2nc(COC(=O)c3ccccc3NC(=O)c3ccc(F)cc3)cc(=O)n12` the Potency was inconclusive [activator, single point]. With `CS(=O)(=O)CCN1CC2CCCC(C2)C1` the Potency was inconclusive [activator, partial curve]. For `CC(C)C[C@H]1CN([C@@H](CC(C)C)CN2CCCC2CN2C(=S)NC[C@@H]2Cc2ccc(O)cc2)C(=S)N1CC1CCCCCC1` (some centres not stated), the Potency was inconclusive [activator, single point]. With `CCCCn1c(O)c(C(C)=NCc2ccc(F)cc2)c(=O)[nH]c1=O` the “growth rescue (activation)” value was inactive: 20.1%. For `CC(C(=O)c1ccccc1)N1C(=O)c2ccccc2C1=O` (configuration not stated), the Potency was inconclusive [activator, partial curve]. With `CCCCC/C(=N\O)c1c[nH]c2ccccc12` the Potency was inconclusive [activator, single point]. In the case of `C[C@]12CCC3C(CC[C@H]4C[C@@H](O)CC[C@]34C)[C@H]1C=CC2=O` (some centres not stated), the Potency is reported as inconclusive [activator, single point]. With `CCOC(=O)[C@]12Cc3ccccc3[C@H]1N(C(C)C)C(=O)c1ccccc12` the Potency was inconclusive [activator, single point]. For `C[N+]1(C)CCN(c2ccccc2)CC1`, the growth rescue (activation) was inconclusive: 23.6% [activator].
Potency is read from the fitted curve at half-maximal effect; tags tell the direction and shape of the fitted curve.
